Data: PubChem BioAssay AID504466 (National Center for Advancing Translational Sciences (NCATS), 2011)
Hit rate of the full screen: of about 330,000 compounds, about 4,200 (1.3%) were called active. The shares of active, inactive and inconclusive entries below differ from those in the screen. Calls come from the whole dose curve; as a rule, active = well fitted activation curve with a large enough effect; inconclusive = small, poorly fitted or top-dose-only effect; inactive = no such curve, though single readings can be large or run the other way. Potencies of inconclusive entries are doubtful fits and often do not repeat.

Test: qHTS screen for small molecules that induce genotoxicity in human embryonic kidney (HEK293T) cells expressing luciferase-tagged ELG1; note: nearly all actives have a fitted effect of over 60% in size; for activity change, positive = activation: % of control where 0% means no effect
Settings: HEK293T ELG1-luciferase reporter, luminescence, 16 h; series mostly up to 46 µM; activity change, positive = activation: at the top concentration
In short: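 Quantitative HTS format in 1536-well plates. HEK293T ELG1-luciferase reporter cells receive test compound and are incubated 16 hr at 37 °C, 5% CO2; ONE-Glo added, 30 min room temperature, then luminescence read.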
Potency is the fitted concentration of half-maximal effect; tags give direction and shape of the fitted curve.

| SMILES | Potency | activity change, positive = activation |
| --- | --- | --- |
| COC(=O)c1ccc(-c2nc3ccccc3[nH]2)cc1 | inconclusive: 1.16 µM [activator, partial curve] |  |
| COc1ccc(/C=C2/C(=O)ON=C2c2ccccc2)cc1OC |  | inactive: 15.4% |
| CCOc1ccccc1CNc1ncnc2ccc(-c3c(C)noc3C)cc12 | inconclusive: 23.1 µM [activator, single point] |  |
| COc1cc(OC)cc(C(=O)OCC(=O)N2CCCC2)c1 |  | inactive: 3.21% |
| O=C(N/N=C1\CCc2ccccc21)c1ccncc1 | inconclusive: 29.1 µM [activator, partial curve, poor fit] |  |
| CCCOC(=O)c1c(N)sc(C(=O)OCC)c1C | inconclusive: 23.1 µM [activator, partial curve, poor fit] |  |
| CC(=O)c1cccc(NC(=S)NC(=O)c2cccc(C)c2)c1 | inconclusive: 9.2 µM [activator, partial curve] |  |
| COC(=O)c1cc(S(=O)(=O)NCCc2ccc(Cl)cc2)c[nH]1 |  | inactive: -9.07% |
| COc1ccc(NC(=S)NC(=O)c2ccc3c(c2)OCCO3)cc1 | inconclusive: 11.6 µM [activator, partial curve, poor fit] |  |
| Cc1nn2c(=O)cc(COC(=O)c3c(F)cccc3Cl)nc2s1 | inconclusive: 23.1 µM [activator, partial curve, poor fit] |  |
| CCOC(=O)CNC(=O)c1cc(-c2ccc3c(c2)OCCO3)oc1C | inconclusive: 16.4 µM [activator, partial curve] |  |
| CCn1ncc(Cl)c1C(=O)Nc1ccc2c(c1)CCC2 | inconclusive: 14.6 µM [activator, partial curve, poor fit] |  |
| COc1cc(/C=C(\C#N)c2nc3ccccc3o2)ccc1O | inconclusive: 23.1 µM [activator, partial curve, poor fit] |  |
| O=C1CC(/C=C/c2ccccc2)=Nc2ccccc2N1 | inconclusive: 14.6 µM [activator, partial curve, poor fit] |  |
| CN1CCN(CC(=O)Nc2ccc(OCc3ccccc3)cc2)CC1 | inconclusive: 16.4 µM [activator, single point] |  |
| COc1ccccc1NC(=O)CSc1nnc(-c2ccoc2C)o1 | inconclusive: 20.6 µM [activator, partial curve, poor fit] |  |
| CCc1c(C)nc2cc(-c3ccc(OC)c(OC)c3)nn2c1NCC1CC1 |  | inactive: -19.7% |
| Cc1cccc(NC2SC(=O)N(c3ccccc3)C2=O)c1 (configuration not stated) |  | inactive: 22.4% |
| Cc1ccc2c(CN3CCCCC3)cc(=O)oc2c1C | inconclusive: 18.3 µM [activator, partial curve, poor fit] |  |

| SMILES | Potency | activity change, positive = activation |
| --- | --- | --- |
| CSc1nc2c(c(=O)[nH]c(=O)n2C)n1Cc1ccc(Cl)cc1 | inconclusive: 23.1 µM [activator, partial curve, poor fit] |  |
| Cc1cc(C)cc(N=C2NC(=O)/C(=C/c3cccs3)S2)c1 |  | inactive: 3.23% |
| CN1CCN(Cn2cc(/C=C/C(=O)c3ccccc3)c3ccccc32)CC1 | inconclusive: 13 µM [activator, partial curve] |  |
| C/C(=N\O)C(C)(C)Nc1cccc(Br)c1 |  | inactive: -5.64% |
| C/C(=N\NC(=O)OC(C)(C)C)c1ccccc1Br | inconclusive: 18.3 µM [activator, partial curve] |  |
| O=C(/C=C/c1ccccc1Cl)c1ccc[nH]1 | inconclusive: 18.4 µM [activator, partial curve, poor fit] |  |
| CC(Oc1cccc(Br)c1)C(=O)NNC(=O)c1ccccn1 (configuration not stated) | inconclusive: 29.1 µM [activator, single point] |  |
| COc1ccc(OCCSc2ncnc3nc[nH]c23)cc1 | inconclusive: 9.2 µM [activator, partial curve] |  |
| O=C(O)Cc1ccc(NC(=O)Nc2ccc3c(c2)OCO3)cc1 | inconclusive: 20.6 µM [activator, partial curve] |  |
| COc1ccc(C(=O)/C=C2/c3ccccc3CC(C)(C)N2C)cc1 |  | inactive: 9.29% |
| CCOc1cc(N2CCOCC2)c(OCC)cc1NC(=O)c1ccc(OCc2c(C)noc2C)c(OC)c1 |  | inactive: -2.25% |
| Cc1noc(C)c1C(=O)Nc1nc2ccccc2s1 | inconclusive: 23.1 µM [activator, partial curve, poor fit] |  |
| CCCOc1ccc(-c2nc(=S)[nH][nH]2)cc1 | inconclusive: 6.51 µM [activator, partial curve] |  |
| COc1ccc2c(c1)c1nc3ccccc3nc1n2CC(=O)OC(C)C | inconclusive: 20.6 µM [activator, single point] |  |
| CCOc1ccccc1Nc1ncnc2c1cnn2-c1ccccc1 |  | inactive: -4.92% |
| CCOc1ccc(NC(=O)c2[nH]c(C)c(C(C)=O)c2C)cc1 | inconclusive: 20.6 µM [activator, partial curve, poor fit] |  |
| C/C=C(\C)c1nnc(NC(=O)C(C)C)s1 | inconclusive: 23.1 µM [activator, single point] |  |
| CC(=O)N1CC(=O)N=C1SCC(=O)Nc1nc(C)c(-c2ccccc2)s1 | inconclusive: 23.1 µM [activator, partial curve, poor fit] |  |
